{"source": "the RNAGym collection of RNA variant scans (doi:10.1093/nar/gkz1192)", "parents": {"B1": {"name": "CPEB3 Ribozyme (parent)", "chain": "UAACAGGGGGCCACAGCAGAAGCGUUCACGUCGCAGCCCCUGUCAGAUUCUGGUGAAUCUGCGAAUUCUGCUGUAUAUCUC"}}, "note": "The source gives no read counts; variants with many changes may rest on few reads.", "data": [{"variants_of": "B1", "experiment": "self-cleavage, relative activity (ratio to wild type); higher = more cleavage; in vitro, sequencing", "summary_of_the_method": "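Barcoded CPEB3 ribozyme mutants, produced by rounds of error-prone PCR, self-cleaved while being transcribed with T7 RNA polymerase for 5 hours at 37°C and during a subsequent 15 min DNase I step before EDTA was added. Sequencing of template-switched cDNA on Illumina gave cleaved and total reads, and DNA sequencing assigned barcodes to variants. Each variant's relative activity is its cleaved/total read fraction divided by the unmutated ribozyme's fraction, averaged across three batches. A variant needed a minimum of 5 reads.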", "values": [{"variant": "UAACAGGGGGCCCCUGCAGAAGCGUUCACGUAGCAGCCCCUGUCAGAUUCUGGUGAAUCUGCGAAUUCUGCUGUAUAUCUC", "note": "[A13C A15U C32A]", "self-cleavage": 0.26}, {"variant": "UAACAGGGGGCCCCAGCGGAAGCGUUCACGUCGCAGCCCCUGACAGAUUCUGGUGAAUCUGCGAAUUCUGCUGUAUAUCCC", "note": "[A13C A18G U43A U80C]", "self-cleavage": 0.92}, {"variant": "UAACAGGGGGCCCCAGCGGAAGCGUUCACGUCGCAGCCCCUGUCAGAUUCCGGUGAGUCUGCGAAUUCUGCUGUAUAUCUC", "note": "[A13C A18G U51C A57G]", "self-cleavage": 0.17}, {"variant": "UAACAGGGGGCCCCAGCUGAAGCGUUCACGUCGCAGCCCCCGUCAGAUUCUGGUGAAUCUGCGAAUUCUGCCGUAUAUCUC", "note": "[A13C A18U U41C U72C]", "self-cleavage": 0.19}, {"variant": "UAACAGGGGGCCCCAGCAGGGGCGUUCUCGUCGCAGCCCCUGCCAGAUUCUGGUGAGUCUGCGGAUUCUGCUGUAUAUCUC", "note": "[A13C A20G A21G A28U U43C A57G A64G]", "self-cleavage": 0}, {"variant": "UAACAGGGGGCCCCAGCAGGAGCGUUCACGUCGCAGCCCCUGUCUGAUUCUGGUGAAUCUGCGAAUUCUGCUGUAUAUCUC", "note": "[A13C A20G A45U]", "self-cleavage": 0.34}, {"variant": "UAACAGGGGGCCCCAGCAGGAGCGUCCAUGUCGCAGCCCCUGUCAGAUUCUGGUGAAUCUGCGAAUUCUGCUGUAUACCUC", "note": "[A13C A20G U26C C29U U78C]", "self-cleavage": 0.1}, {"variant": "UAACAGGGGGCCCCAGCAGGAGCGUUCACGUCGCAGCCCCUGACAGAUUCUGGUGAAUCUGCGAAUUCUGCAGUAUAUCUC", "note": "[A13C A20G U43A U72A]", "self-cleavage": 0.37}, {"variant": "UAACAGGGGGCCCCAGCAGAGGCGCUCACGUCGCAGCCCCUACCAGAUUCUGGUGAAUCUGCGAAUUCUGCAGUAUAUCUC", "note": "[A13C A21G U25C G42A U43C U72A]", "self-cleavage": 0.06}, {"variant": "UAACAGGGGGCCCCAGCAGAGGCGUUCACGUCGCAGCCCCUGUCAGAUUCUGGUGAAUCCGCGAAUUCUGCUGUAUAUCUC", "note": "[A13C A21G U60C]", "self-cleavage": 0.33}, {"variant": "UAACAGGGGGCCCCAGCAGAGGCGUUCACGUCGCAGCCCCUGUCAGAUUCUGGUGAAUCUGCGAAUUCGGAUGUUUAUCUC", "note": "[A13C A21G U69G C71A A75U]", "self-cleavage": 0.04}, {"variant": "UAACAGGGGGCCCCAGCAGAGGCGUUCACGUCGCAGCCCCUGUCAGAUUCUGGUGAAUCUGCGAAUUCUGCUGUAUACCUC", "note": "[A13C A21G U78C]", "self-cleavage": 0.6}, {"variant": "UAACAGGGGGCCCCAGCAGAUGCGUUCACGUCGCAGCCCCUGUCAGAUUCUGGUGAAUCUGCGAAUUCAGCCGUUUAUCUC", "note": "[A13C A21U U69A U72C A75U]", "self-cleavage": 0.07}, {"variant": "UAACAGGGGGCCCCAGCAGAAGCGUUCGCGUCGCAGCCCCUGUCAGAUUCUGGUGAAUCUGCGAAUUCUGCUGUAUACCUC", "note": "[A13C A28G U78C]", "self-cleavage": 0.68}, {"variant": "UAACAGGGGGCCCCAGCAGAAGCGUUCACGUCGCGGCCCCUGUCAGAUUCUGGUGUAUCCGCGAAUUCUGCUGUAUAUCUC", "note": "[A13C A35G A56U U60C]", "self-cleavage": 0.27}, {"variant": "UAACAGGGGGCCCCAGCAGAAGCGUUCACGUCGCAGCCCCUGUCAGGUUCUGGUGAAUCCGCGAUUUCUGCAGUAUAUCUC", "note": "[A13C A47G U60C A65U U72A]", "self-cleavage": 0.12}, {"variant": "UAACAGGGGGCCCCAGCAGAAGCGUUCACGUCGCAGCCCCUGUCAGAUUCUGGUGGUUCUGCGAAUUCUGCUGUAUAUCUC", "note": "[A13C A56G A57U]", "self-cleavage": 0.12}, {"variant": "UAACAGGGGGCCCCAGCAGAAGCGUUCACGUCGCAGCCCCUGUCAGAUUCUGGUGAGUCUGCGAACUCCGCUGUAUAUCUC", "note": "[A13C A57G U66C U69C]", "self-cleavage": 0.12}, {"variant": "UAACAGGGGGCCCCAGCAGAAGCGUUCACGUCGCAGCCCCUGUCAGAUUCUGGUGAAUCUGCGAAUUCUGCUGUAUGUCCC", "note": "[A13C A77G U80C]", "self-cleavage": 1.07}, {"variant": "UAACAGGGGGCCCCAGUAGAAGCGCUCACGUCGCAGCCCCAGUCAGAUUCUGGUGAAUCUGCGAAUUCUGCUGUAUAUCCC", "note": "[A13C C17U U25C U41A U80C]", "self-cleavage": 0.27}, {"variant": "UAACAGGGGGCCCCAGUAGAAGCGCUCACGUCGCAGCCCCUGUCAGAUUCUGGCGAAUCUGCGAGAUCUGCUGUAUAUCCC", "note": "[A13C C17U U25C U54C A65G U66A U80C]", "self-cleavage": 0.06}, {"variant": "UAACAGGGGGCCCCAGCAGAAGAGUUCACGUCGCAGCCCCUGUCGGACUCUGGCGAAUCUGCGUAUUCUGCUGUAUGUCUC", "note": "[A13C C23A A45G U48C U54C A64U A77G]", "self-cleavage": 0.06}, {"variant": "UAACAGGGGGCCCCAGCAGAAGCGUUCACGUCGCAGCCGCUGUCUGAUUCUGGUGAAUCUGCGAAUUCUGCUGUAUAUCUC", "note": "[A13C C39G A45U]", "self-cleavage": 0.2}, {"variant": "UAACAGGGGGCCCCAGCAGAAGCGUUCACGUCUCUGCCCCUGUCAGAUUCUGGUGAAUCUGCGGAUUCUGCAGUUUAUCUC", "note": "[A13C G33U A35U A64G U72A A75U]", "self-cleavage": 0.05}, {"variant": "UAACAGGGGGCCCCAGCAGAAGCGUUCACGUCGCAGCCCCUGUCAGAUUCUAGCGAAUCUGAGAAUUCUGCUGUAUAUCUC", "note": "[A13C G52A U54C C62A]", "self-cleavage": 0.21}, {"variant": "UAACAGGGGGCCCCAGCAGAAGCGUUCACGUCGCAGCCCCUGUCAGAUUCUGGUAAAUCUGCGAAUUCUGCUGUAUAUCCC", "note": "[A13C G55A U80C]", "self-cleavage": 1.1}, {"variant": "UAACAGGGGGCCCCAGCAGAAGCGCUCACGUCGCAGCCCCUGUCGGAUUCUGGGGAAUCUGCGAGCUCUGCUGUACAUCUC", "note": "[A13C U25C A45G U54G A65G U66C U76C]", "self-cleavage": 0.06}, {"variant": "UAACAGGGGGCCCCAGCAGAAGCGCUCACGUCGCAGCCCCUACCAGAUUCUGGUGAAUCUGCGAAUUCUGCCGUAUACCUC", "note": "[A13C U25C G42A U43C U72C U78C]", "self-cleavage": 0.07}, {"variant": "UAACAGGGGGCCCCAGCAGAAGCGCUCACGUCGCAGCCCCUGUCAGAUACUGGUGAAUCAGCGAAUUCUGCUGUAUAUCGC", "note": "[A13C U25C U49A U60A U80G]", "self-cleavage": 0.12}, {"variant": "UAACAGGGGGCCCCAGCAGAAGCGCUCACGUCGCAGCCCCUGUCAGAUUCUGGUGAAUCCGCGAAUUCUGCUGUAUACCUC", "note": "[A13C U25C U60C U78C]", "self-cleavage": 0.29}, {"variant": "UAACAGGGGGCCCCAGCAGAAGCGUACGCGUCGCAGCCCCUGUCAGAUUCUGGUGAAUCUGCGAAUUCUGCUGUAUAUCUC", "note": "[A13C U26A A28G]", "self-cleavage": 0.58}, {"variant": "UAACAGGGGGCCCCAGCAGAAGCGUCCACGUCGCUGCCCCUGUCAGAUUCUGGUGAAUCUGCGUACUCUGCUGUAUAUCUC", "note": "[A13C U26C A35U A64U U66C]", "self-cleavage": 0.11}, {"variant": "UAACAGGGGGCCCCAGCAGAAGCGUGCACGUCGCAGCCCCUGUCAGAUUCUGGUGAAUCUGCGAAUUCUGCUGUGUACCUC", "note": "[A13C U26G A75G U78C]", "self-cleavage": 0.39}, {"variant": "UAACAGGGGGCCCCAGCAGAAGCGUUCACGGCGCAGCCCCUGUCAAAGUCUGGUGAAUCUGCGAAUUCUGCUGUAUAUCUC", "note": "[A13C U31G G46A U48G]", "self-cleavage": 0.15}]}]}
